The list shows a part of the results.

The test system of the first assay is HepG2. Put plainly: cytotoxicity call (relative viability < 0.9). The conditions noted are these: 10 µM.
In the case of `O=C(O)c1ccc(O)cc1O`, the cytotoxicity call was “inactive”.

On to `COCC#Cc1ccc2c(c1)O[C@@H](CN(C)C(=O)C1CCOCC1)[C@H](C)CN([C@H](C)CO)S2(=O)=O`, for which the cytotoxicity call is “inactive”.

`Nc1ncnc2c1ncn2[C@H]1O[C@@H](COP(=O)(O)OP(=O)(O)OP(=O)(O)O)[C@@H](O)[C@@H]1O`: the cytotoxicity call is “inactive”.

For the compound `C[C@@H]1CCCCO[C@@H](CN(C)Cc2ccc(C(=O)O)cc2)[C@@H](C)CN([C@H](C)CO)C(=O)c2cc(NC(=O)Cc3ccccc3)ccc2O1`, the cytotoxicity call is “inactive”.

Consider `CC(C)CC#Cc1ccc2c(c1)O[C@H](CN(C)S(=O)(=O)c1cccc(F)c1)[C@@H](C)CN([C@H](C)CO)S2(=O)=O`, for which the cytotoxicity call is “inactive”.

The next assay deals with S. aureus RN4220. Put plainly: growth inhibition call (relative growth <= 0.2). Conditions: 50 µM.
For the compound `C=CC(C1=CC(=O)C=CC1=O)c1ccccc1` (stereo not given), the growth inhibition call was “inactive”.

`C[C@@H]1CN([C@H](C)CO)C(=O)c2cccc(NC(=O)c3cnccn3)c2O[C@@H]1CN(C)S(=O)(=O)c1ccc(F)cc1`: the growth inhibition call is “inactive”.

With `O=C(C[C@@H]1CC[C@H]2[C@@H](COC[C@H](O)CN2C(=O)Nc2ccc3c(c2)OCO3)O1)N1CCN(c2ccccc2)CC1`, the growth inhibition call is “inactive”.

Consider `Cc1ccc(S(=O)(=O)N2C[C@@H](O)COC[C@@H]3O[C@@H](CC(=O)NCCCN(C)C)CC[C@H]32)cc1`, for which the growth inhibition call was “inactive”.

As for `C[C@H]1CN([C@@H](C)CO)C(=O)Cc2cc(NC(=O)CCCCCC(=O)Nc3ccccc3N)ccc2O[C@H]1CN(C)Cc1ccc(-c2ccccc2)cc1`, the growth inhibition call was “inactive”.

As for `NNC(=O)c1ccccn1`, the growth inhibition call is “inactive”.

As for `Cc1noc(C)c1S(=O)(=O)Nc1ccc2c(c1)C(=O)N([C@@H](C)CO)C[C@@H](C)[C@H](CN(C)S(=O)(=O)c1cccs1)O2`, the growth inhibition call is “inactive”.

Consider `COc1ccc(S(=O)(=O)N(C)C[C@H]2Oc3ccc(NS(=O)(=O)c4cn(C)cn4)cc3C(=O)N([C@@H](C)CO)C[C@@H]2C)cc1`, for which the growth inhibition call is “inactive”.

Regarding `CN[C@@H]1[C@H](O[C@H]2[C@H](O[C@@H]3[C@@H](O)[C@H](O)[C@@H](NC(=N)N)[C@H](O)[C@H]3NC(=N)N)O[C@@H](C)[C@]2(O)CO)O[C@@H](CO)[C@H](O)[C@H]1O.CN[C@@H]1[C@H](O[C@H]2[C@H](O[C@@H]3[C@@H](O)[C@H](O)[C@@H](NC(=N)N)[C@H](O)[C@H]3NC(=N)N)O[C@@H](C)[C@]2(O)CO)O[C@@H](CO)[C@H](O)[C@H]1O`, the growth inhibition call was “inactive”.

In the case of `CN(C)CCCNC(=O)C[C@@H]1C=C[C@H](NS(=O)(=O)c2ccccc2)[C@H](CO)O1`, the growth inhibition call is “inactive”.

Turning to `Nc1nc(=O)c2[nH]c(=O)c(=O)[nH]c2[nH]1`, the growth inhibition call was “inactive”.

For `CC(C)c1nc2cc3sc(C(C)C)nc3cc2s1`, the growth inhibition call is “inactive”.

For `COc1ccc(S(=O)(=O)Nc2ccc3c(c2)C(=O)N([C@H](C)CO)C[C@@H](C)[C@@H](CN(C)S(=O)(=O)c2ccc(C)cc2)O3)cc1`, the growth inhibition call was “inactive”.

Take `COCC#Cc1ccc2c(c1)O[C@H](CN(C)C(=O)CN(C)C)[C@@H](C)CN([C@@H](C)CO)S2(=O)=O`: the growth inhibition call is “inactive”.

Turning to `Cc1noc(C)c1NC(=O)Nc1ccc2c(c1)C(=O)N([C@@H](C)CO)C[C@@H](C)[C@@H](CN(C)Cc1ccc(C(=O)Nc3ccccc3N)cc1)O2`, the growth inhibition call was “inactive”.

On to `N=C(N)NCCN1CCCCCCC1`, for which the growth inhibition call is “inactive”.

Consider `C[C@@H]1CCCCO[C@@H](CN(C)S(=O)(=O)c2ccc(Cl)cc2)[C@@H](C)CN([C@H](C)CO)C(=O)c2cc(NC(=O)Nc3ccccc3)ccc2O1`, for which the growth inhibition call was “inactive”.

`Cc1ccc(S(=O)(=O)Nc2ccc3c(c2)C(=O)N([C@@H](C)CO)C[C@H](C)[C@H](CN(C)Cc2ccc(Cl)c(Cl)c2)O3)cc1`: the growth inhibition call is “inactive”.

Take `CC(=O)NS(=O)(=O)c1ccc(NC(=O)c2ccccc2C(=O)O)cc1`: the growth inhibition call is “inactive”.

`C[C@H]1CN([C@@H](C)CO)C(=O)c2cccc(NC(=O)Nc3ccc(F)cc3)c2O[C@H]1CN(C)Cc1ccc(C(=O)Nc2ccccc2N)cc1`: the growth inhibition call was “inactive”.

For the compound `Cc1noc(C)c1NC(=O)N(C)C[C@@H]1Oc2ccc(NS(C)(=O)=O)cc2CC(=O)N([C@H](C)CO)C[C@@H]1C`, the growth inhibition call was “inactive”.

As to `C[C@@H]1CN([C@H](C)CO)C(=O)c2cccc(NC(=O)Nc3ccc(C(F)(F)F)cc3)c2O[C@H]1CN(C)Cc1ccc(-c2ccccc2)cc1`, the growth inhibition call is “inactive”.

For the compound `COc1ccc(S(=O)(=O)N(C)C[C@@H]2Oc3ncc(-c4ccccc4)cc3C(=O)N([C@H](C)CO)C[C@@H]2C)cc1`, the growth inhibition call is “inactive”.

On to `CC(C)NC(=O)N(C)C[C@@H]1OCCCC[C@H](C)Oc2ccc(NC(=O)C3CCCCC3)cc2C(=O)N([C@H](C)CO)C[C@@H]1C`, for which the growth inhibition call is “inactive”.

For `C[C@H](O)C#Cc1ccc2c(c1)O[C@H](CN(C)C(=O)c1ccccc1)[C@H](C)CN([C@H](C)CO)S2(=O)=O`, the growth inhibition call is “inactive”.

In the case of `Cn1cnc(S(=O)(=O)N[C@@H]2C=C[C@@H](CC(=O)Nc3ccccc3)O[C@@H]2CO)c1`, the growth inhibition call is “inactive”.

As for `COC(=O)CCCCCCC(=O)Nc1ccc([C@H]2O[C@@H](CSc3nc4ccccc4s3)C[C@H](c3ccccc3)O2)cc1`, the growth inhibition call was “inactive”.

With `C[C@@H]1CN([C@H](C)CO)C(=O)Cc2cc(NC(=O)Cc3cn(C)c4ccccc34)ccc2O[C@H]1CN(C)C(=O)Nc1cccc2ccccc12`, the growth inhibition call is “inactive”.

On to `CCS(=O)(=O)N1CC[C@]2(CC1)CN([C@H](CO)c1[nH]c3cc(ccc3c12)OC)S(=O)(=O)c1ccc(cc1)C`, for which the growth inhibition call was “inactive”.

With `Cc1ccc(S(=O)(=O)Nc2ccc3c(c2)CC(=O)N([C@@H](C)CO)C[C@H](C)[C@@H](CN(C)S(=O)(=O)c2ccc(F)cc2)O3)cc1`, the growth inhibition call is “inactive”.

As for `CC1(C)S[C@@H]2[C@H](NC(=O)[C@H](NC(=O)N3CCNC3=O)c3ccccc3)C(=O)N2[C@H]1C(=O)O`, the growth inhibition call was “inactive”.

`C[C@H]1CN([C@@H](C)CO)C(=O)Cc2cc(NC(=O)Nc3cccc4ccccc34)ccc2O[C@@H]1CN(C)Cc1ccc(-c2ccccc2)cc1`: the growth inhibition call is “inactive”.

On to `CCN1C(=O)C[C@@H]2[C@@H]1CCN2S(=O)(=O)c1cn(C)cn1`, for which the growth inhibition call was “inactive”.

Regarding `CN(C)CC(=O)N[C@@H]1CC[C@@H](CC(=O)NCCN2CCCCC2)O[C@H]1CO`, the growth inhibition call was “inactive”.

As to `COc1ccc(NC(=O)Nc2ccc3c(c2)C(=O)N([C@H](C)CO)C[C@@H](C)[C@H](CN(C)S(=O)(=O)c2ccc(F)cc2)OCCCC[C@H](C)O3)cc1`, the growth inhibition call was “inactive”.

On to `O=C(O)c1ccc(O)cc1O`, for which the growth inhibition call is “inactive”.

Turning to `COCC#Cc1ccc2c(c1)O[C@@H](CN(C)C(=O)C1CCOCC1)[C@H](C)CN([C@H](C)CO)S2(=O)=O`, the growth inhibition call is “inactive”.

With `Nc1ncnc2c1ncn2[C@H]1O[C@@H](COP(=O)(O)OP(=O)(O)OP(=O)(O)O)[C@@H](O)[C@@H]1O`, the growth inhibition call is “inactive”.

As for `C[C@@H]1CCCCO[C@@H](CN(C)Cc2ccc(C(=O)O)cc2)[C@@H](C)CN([C@H](C)CO)C(=O)c2cc(NC(=O)Cc3ccccc3)ccc2O1`, the growth inhibition call was “inactive”.

Consider `CC(C)CC#Cc1ccc2c(c1)O[C@H](CN(C)S(=O)(=O)c1cccc(F)c1)[C@@H](C)CN([C@H](C)CO)S2(=O)=O`, for which the growth inhibition call was “inactive”.

The record behind these values is the antibiotic and cytotoxicity screens of Wong et al. (2023).
